# Laboratory results published in the supplement of paper PMC4967469.
# A lower IC50 marks a more sensitive line; where the fit passes the top or lowest dose, that dose stands as a limit. AUC sums up the same curve from the lowest dose to the 256-fold higher top dose; the more sensitive the line, the further below 1. The top dose, if marked as inferred, was derived from the fitted curves, not read from the paper.
# How the values were obtained:
# Assay in all cases: Viability of human cancer cell lines after 72 h of drug (GDSC screen)
# Bryostatin 1 = compound: CCC/C=C/C=C/C(=O)O[C@H]1/C(=C/C(=O)OC)C[C@H]2C[C@H]([C@@H](C)O)OC(=O)C[C@H](O)C[C@@H]3C[C@H](OC(C)=O)C(C)(C)[C@](O)(C[C@@H]4C/C(=C/C(=O)OC)C[C@H](/C=C/C(C)(C)[C@]1(O)O2)O4)O3 [Bryostatin 1]; settings: top dose 0.008 µM; top dose inferred
# Description: (§1)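 Human cancer cell lines in 384-well plates, medium with 10% serum, drug for 72 h over a 256-fold dose range (nine 2-fold or five 4-fold steps up to the top dose). Adherent lines were fixed and stained with the nucleic acid dye Syto60, suspension lines read with resazurin; signal relative to control wells, capped at 0 and 100%. One two-parameter sigmoid per drug and line, fitted in a mixed model over all curves with the slope shared within a line.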
# Lenalidomide = compound: Nc1cccc2c1CN(C1CCC(=O)NC1=O)C2=O [Lenalidomide]; settings: top dose 5 µM; top dose inferred
# Description: as §1
# GW-2580 = compound: COc1ccc(COc2ccc(Cc3cnc(N)nc3N)cc2OC)cc1 [GW-2580]; settings: top dose 20 µM; top dose inferred
# Description: as §1
# SGC0946 = compound: CC(C)N(CCCNC(=O)Nc1ccc(C(C)(C)C)cc1)C[C@H]1O[C@@H](n2cc(Br)c3c(N)ncnc32)[C@H](O)[C@@H]1O [SGC0946]; settings: top dose 0.5 µM; top dose inferred
# Description: as §1
Cell Line,AUC (Bryostatin 1),IC50 (Bryostatin 1),AUC (Lenalidomide),IC50 (Lenalidomide),AUC (GW-2580),IC50 (GW-2580),AUC (SGC0946),IC50 (SGC0946)
"MHH-ES-1 (Ewing sarcoma, adherent)",0.979,> 0.008 µM,0.974,> 5 µM,0.986,> 20 µM,0.984,> 0.5 µM
"MHH-PREB-1 (B-cell leukaemia, suspension)",0.975,> 0.008 µM,0.983,> 5 µM,0.977,> 20 µM,0.988,> 0.5 µM
"MIA-PaCa-2 (pancreas, adherent)",0.972,> 0.008 µM,0.955,> 5 µM,0.982,> 20 µM,0.948,> 0.5 µM
"MKN45 (stomach, adherent)",0.981,> 0.008 µM,0.983,> 5 µM,0.982,> 20 µM,0.98,> 0.5 µM
"MMAC-SF (melanoma, adherent)",0.986,> 0.008 µM,0.986,> 5 µM,0.986,> 20 µM,0.965,> 0.5 µM
"MOG-G-CCM (glioma, adherent)",0.97,> 0.008 µM,0.976,> 5 µM,0.974,> 20 µM,0.981,> 0.5 µM
"MOG-G-UVW (glioma, adherent)",0.68,0.00157 µM,0.965,> 5 µM,0.983,> 20 µM,0.981,> 0.5 µM
"MPP-89 (mesothelioma, adherent)",0.981,> 0.008 µM,0.975,> 5 µM,0.964,> 20 µM,0.978,> 0.5 µM
"MRK-nu-1 (breast, suspension)",0.989,> 0.008 µM,0.973,> 5 µM,0.99,> 20 µM,0.989,> 0.5 µM
"MS751 (cervix, adherent)",0.985,> 0.008 µM,0.99,> 5 µM,0.99,> 20 µM,0.979,> 0.5 µM
"MZ2-MEL (melanoma, adherent)",0.949,> 0.008 µM,0.952,> 5 µM,0.971,> 20 µM,0.971,> 0.5 µM
"Mewo (melanoma, adherent)",0.875,> 0.008 µM,0.947,> 5 µM,0.975,> 20 µM,0.982,> 0.5 µM
"NB1 (neuroblastoma, semi-adherent)",0.984,> 0.008 µM,0.976,> 5 µM,0.896,> 20 µM,0.967,> 0.5 µM
"NB5 (neuroblastoma, adherent)",0.983,> 0.008 µM,0.986,> 5 µM,0.986,> 20 µM,0.985,> 0.5 µM
"NB12 (neuroblastoma, adherent)",0.969,> 0.008 µM,0.979,> 5 µM,0.98,> 20 µM,0.977,> 0.5 µM
"NB14 (neuroblastoma, adherent)",0.989,> 0.008 µM,0.989,> 5 µM,0.987,> 20 µM,0.988,> 0.5 µM
"NB(TU)1-10 (neuroblastoma, adherent)",0.992,> 0.008 µM,0.964,> 5 µM,0.98,> 20 µM,0.993,> 0.5 µM
"NCI-H23 (lung adenocarcinoma, adherent)",0.987,> 0.008 µM,0.987,> 5 µM,0.975,> 20 µM,0.977,> 0.5 µM
"NCI-H28 (mesothelioma, adherent)",0.975,> 0.008 µM,0.976,> 5 µM,0.981,> 20 µM,0.978,> 0.5 µM
"NCI-H69 (small cell lung carcinoma, suspension)",0.985,> 0.008 µM,0.986,> 5 µM,0.949,> 20 µM,0.981,> 0.5 µM
"NCI-H187 (small cell lung carcinoma, suspension)",0.988,> 0.008 µM,0.988,> 5 µM,0.987,> 20 µM,0.986,> 0.5 µM
"NCI-H209 (small cell lung carcinoma, suspension)",0.971,> 0.008 µM,0.986,> 5 µM,0.955,> 20 µM,0.98,> 0.5 µM
"NCI-H292 (lung adenocarcinoma, adherent)",0.881,> 0.008 µM,0.968,> 5 µM,0.969,> 20 µM,0.96,> 0.5 µM
"NCI-H322M (lung adenocarcinoma, suspension)",0.982,> 0.008 µM,0.972,> 5 µM,0.987,> 20 µM,0.98,> 0.5 µM
"NCI-H358 (lung adenocarcinoma, adherent)",0.984,> 0.008 µM,0.984,> 5 µM,0.972,> 20 µM,0.982,> 0.5 µM
"NCI-H441 (lung adenocarcinoma, adherent)",0.97,> 0.008 µM,0.981,> 5 µM,0.981,> 20 µM,0.971,> 0.5 µM
"NCI-H520 (lung squamous cell carcinoma, adherent)",0.98,> 0.008 µM,0.987,> 5 µM,0.987,> 20 µM,0.986,> 0.5 µM
"NCI-H526 (small cell lung carcinoma, suspension)",0.987,> 0.008 µM,0.989,> 5 µM,0.964,> 20 µM,0.989,> 0.5 µM
